# Experimental data: PMC4336329 (PLoS ONE, 2015)
# The whole screen tested about 310,000 compounds, of which about 14,000 (4.5%) showed an effect of 50% or more. Effects have a minus sign here. Some of the results follow.
# Biological target: human ether-à-go-go-related gene (hERG) potassium channel (human, UniProt Q12809)
# Experiment: primary screen, population patch clamp on CHO cells stably expressing hERG
# 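Further: peak tail current of the secondary pulse compared with the same well before compound.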
# Chain of human ether-à-go-go-related gene (hERG) potassium channel (Q12809 whole entry, looked up): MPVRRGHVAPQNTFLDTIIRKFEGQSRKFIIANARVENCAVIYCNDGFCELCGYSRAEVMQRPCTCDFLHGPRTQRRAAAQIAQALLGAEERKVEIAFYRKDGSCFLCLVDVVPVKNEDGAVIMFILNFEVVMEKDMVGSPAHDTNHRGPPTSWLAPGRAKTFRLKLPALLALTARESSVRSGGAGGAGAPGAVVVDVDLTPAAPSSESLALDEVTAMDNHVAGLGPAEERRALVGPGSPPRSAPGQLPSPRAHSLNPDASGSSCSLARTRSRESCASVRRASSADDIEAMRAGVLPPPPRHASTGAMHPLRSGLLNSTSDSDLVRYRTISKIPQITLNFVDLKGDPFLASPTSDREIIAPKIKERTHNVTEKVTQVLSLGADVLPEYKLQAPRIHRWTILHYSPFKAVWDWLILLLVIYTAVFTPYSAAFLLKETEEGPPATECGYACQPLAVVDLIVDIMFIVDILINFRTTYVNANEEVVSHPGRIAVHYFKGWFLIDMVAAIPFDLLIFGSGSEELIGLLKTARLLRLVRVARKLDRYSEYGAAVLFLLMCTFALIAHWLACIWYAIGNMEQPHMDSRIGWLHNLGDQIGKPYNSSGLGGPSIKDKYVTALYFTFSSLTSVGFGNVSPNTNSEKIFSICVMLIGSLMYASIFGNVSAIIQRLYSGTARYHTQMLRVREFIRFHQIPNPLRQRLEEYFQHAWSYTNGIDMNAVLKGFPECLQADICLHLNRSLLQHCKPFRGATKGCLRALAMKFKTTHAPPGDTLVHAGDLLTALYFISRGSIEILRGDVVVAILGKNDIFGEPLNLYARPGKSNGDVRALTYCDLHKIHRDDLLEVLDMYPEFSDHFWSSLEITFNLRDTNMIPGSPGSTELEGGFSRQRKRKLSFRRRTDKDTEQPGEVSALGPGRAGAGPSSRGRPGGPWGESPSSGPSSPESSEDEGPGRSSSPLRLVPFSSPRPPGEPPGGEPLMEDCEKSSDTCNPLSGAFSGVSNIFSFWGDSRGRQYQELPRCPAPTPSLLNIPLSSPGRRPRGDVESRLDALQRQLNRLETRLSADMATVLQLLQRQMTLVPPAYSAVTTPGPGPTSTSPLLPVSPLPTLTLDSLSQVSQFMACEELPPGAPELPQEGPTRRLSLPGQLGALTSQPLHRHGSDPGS
row,Compound,"hERG current change (%, negative = inhibition) at 10uM"
1,C=C(C)C1CC=C(C)/C(=N/NC(=O)c2cccs2)C1 (stereo not drawn),19.1%
2,Cc1ccc(NS(=O)(=O)c2cccc(C(=O)NCC3(N(C)C)CCCCC3)c2)cc1,-22.4%
3,CC1CC(C)CN(S(=O)(=O)N2CCC(C(=O)NCCc3ccccc3)CC2)C1 (stereo not drawn),22.2%
4,CC(=O)Nc1sc(C)c(C)c1C(=O)OCC(=O)Nc1ccccc1,5.91%
5,COCCn1nnnc1C(C(C)C)N1CCCC(C)C1.Cl (stereo not drawn),10.7%
6,COC(=O)c1ccc(N=Nc2ccccc2)cc1,3.06%
7,CCOc1cc(/C=C2\C(=N)N3N=C(CC)SC3=NC2=O)ccc1OCCOc1ccc(NC(C)=O)cc1,12.7%
8,COc1ccc(/C=C/C(=O)c2cc(Br)ccc2O)cc1OC,20.3%
9,O=C1CS/C(=C\S(=O)(=O)c2ccc(Cl)cc2)N1,-0.909%
10,Cc1cc(C(=O)CSc2nnc(N)s2)c(C)n1Cc1ccco1,23.7%
11,CCOC(=O)c1cc(-c2ccccc2)sc1NC(=O)CSc1nnnn1C,-16.3%
12,CCN(Cc1ccccc1)C(=O)c1ccc(Cl)cc1[N+](=O)[O-],-4.22%
13,COc1cc(/C=N\NC(=O)c2ccc(Cn3cc(Br)c([N+](=O)[O-])n3)o2)cc(OC)c1O,-11.9%
14,O=C(Cn1nc(C(F)F)cc1C(F)F)N/N=C/c1ccc2c(c1)OCO2,24.7%
15,Cc1ccc(CNC(=O)CSCc2cccc(F)c2)cc1,-15.8%
16,C=CCn1c(CNC(=O)c2cccs2)nnc1SCC(=O)c1ccc(Br)cc1,-19.3%
17,Cc1cccc(NC(=O)c2ccc(S(=O)(=O)N(C)C)cc2)n1,-4.13%
18,Cc1ccc2oc(-c3ccccc3C(=O)O)cc(=O)c2c1,-2.39%
19,CCCCN(C)C(=S)Nc1ccc2nc3n(c(=O)c2c1)CCCCC3,-81.2%
20,Cc1ccc(S(=O)(=O)CCC(=O)Oc2ccc3c(C)cc(=O)oc3c2)cc1,7.67%
21,CCN(CC)c1ncnc2c1sc1nc(C)cc(C)c12,-0.761%
22,COc1cc(/C=C/C(=O)c2cccc([N+](=O)[O-])c2)cc(OC)c1OC,3.28%

row,Compound,"hERG current change (%, negative = inhibition) at 10uM"
1,O=C(Nc1cccc(Cl)c1)C1CCCN(S(=O)(=O)c2ccc(F)cc2)C1 (stereo not drawn),-4.67%
2,CCn1ccc(C(=O)Oc2ccc(Cl)cc2)n1,7.51%
3,CC(NCc1ccc([N+](=O)[O-])cc1)C1COc2ccccc2O1.O=C(O)C(=O)O (stereo not drawn),-66.2%
4,Nc1nnc(Sc2ccc(Cl)cc2[N+](=O)[O-])s1,16.3%
5,Cc1ccc(NC(=O)ON=C2CCCC2)cc1,1.04%
6,CN1CCNC(=O)C1CC(=O)N1CC=C(c2ccc(F)cc2)CC1 (stereo not drawn),-3.88%
7,COC(=O)c1ccc(NC(=O)CSc2nnc(Cc3cccn3C)n2-c2ccc(F)cc2)cc1,-12.7%
8,CCc1nn2cc(C(=O)c3ccccc3O)cnc2c1-c1ccc(F)cc1,8.2%
9,CCOc1ccccc1N(CC(=O)NC1CCCCC1)C(=O)CCC(=O)Nc1cc(C)ccn1,3.35%
10,Cc1cccc2sc(N(CCN3CCOCC3)C(=O)CCS(=O)(=O)c3ccccc3)nc12.Cl,-13.3%
11,COC(=O)[C@H](Cc1ccccc1)NC(=O)NCCc1ccc(S(N)(=O)=O)cc1,14.4%
12,CNC(=O)Oc1cccc(-c2cn3cc(Cl)ccc3n2)c1,-17.5%
13,Cc1ccc(C)c(C(=O)Nc2cc(C)nn2-c2nc(C)cc(C)n2)c1,3.98%
14,CN(C)S(=O)(=O)N1CCc2ccccc21,15.8%
15,COc1ccc(-c2nnc3c4ccccc4c(C)nn23)cc1S(=O)(=O)N1CCN(CCO)CC1,-26.5%
16,Nn1c(-c2ccccc2)cc(-c2ccccc2)cc1=O,-11.9%
17,CC1=NN(C(=O)c2ccccc2Br)C(O)(c2cccnc2)C1 (stereo not drawn),12.9%
18,CN(CC(=O)Nc1ccccc1C(=O)NC1CC1)Cc1cccs1,-23.3%
19,COc1ccccc1NS(=O)(=O)c1cc([N+](=O)[O-])ccc1N/N=C/c1sc(N2CCOCC2)nc1-c1ccccc1,29.3%
20,O=C1Nc2ccccc2/C1=C/c1nc2ccccc2c(=O)n1-c1ccc(O)cc1,18.6%
21,Cc1cc(C(=O)CSc2nnc(-c3cccs3)o2)c(C)n1-c1ccccc1,-4.94%
22,Cc1cc(C(=O)Nc2ccc(C#N)cc2)on1,10.7%

row,Compound,"hERG current change (%, negative = inhibition) at 10uM"
1,COc1ccc(N(C(=O)c2ccncc2)S(=O)(=O)c2ccc3c4c(cccc24)C(=O)N3C)cc1,8.2%
2,Clc1ccc(-c2nnc(N3CCOCC3)o2)cc1,-7.07%
3,CCn1c(=O)c(C(=O)Nc2ncccc2C)c(O)c2ccccc21,18.6%
4,COc1ccc2c(c1)c(CCN1C(=O)c3ccccc3C1=O)cn2C(=O)c1ccco1,10.4%
5,CCc1ccc(CNC(=O)C2CCN(c3nnc(C)c4c(C)n(-c5ccc(C)cc5)nc34)CC2)cc1,-1.17%
6,O=C(O)c1csc(Cc2ccccc2)n1,15.1%
7,CC(=O)c1ccc(N2CCN(C(=O)Cn3cnc(S(=O)(=O)N4CCCCC4)c3)CC2)cc1,7.48%
8,CC1(C)OC(=O)C(=CNC(Cc2c[nH]c3ccccc23)C(=O)O)C(=O)O1 (stereo not drawn),11.9%
9,CC(C)Oc1ccc(CSc2nnc3n(C)c(=O)c4c5c(sc4n23)CCCC5)cc1,-16.6%
10,COc1ccc(C[C@H]2COC(=O)[C@@H]2Cc2ccc(OC3OC(CO)C(O)C(O)C3O)c(OC)c2)cc1OC (stereo partly drawn),16.1%
11,COc1cccc(C(=O)NCCS(=O)(=O)NCc2ccc3c(c2)OCO3)c1,-35.3%
12,O=C(Nc1ccc2c(c1)OCO2)Nc1ccc(Br)cn1,3.01%
13,NC(=O)c1nn(CC(=O)Nc2cccc(S(=O)(=O)N3CCCC3)c2)c(=O)c2ccccc12,3.29%
14,COc1ccc(OCC(=O)Nc2ccccc2C(=O)N2CCCC2)cc1,-7.38%
15,COc1ccc(S(=O)(=O)N2CCOCC2)cc1NC(=O)c1ccccc1-c1ccc(C(F)(F)F)cc1,2.01%
16,C=C(C)C(=O)Nc1cccc(C2=NOC3(C2)C[C@@H](C(N)=O)N(C(=O)/C(C)=C/C)C3)c1 (stereo partly drawn),16.1%
17,Cc1ccc(C)c(N2CCN(C(=O)CCC(=O)Nc3nnc(C(F)(F)F)s3)CC2)c1,-2.9%
18,COC(=O)/C(C#N)=C/c1ccc(C)o1,14.6%
19,Cc1ccc(S(=O)(=O)NCC(=O)NCC2CCCCC2)cc1C,1.86%
20,O=C(/C=C/c1ccc(Br)o1)OCc1nc2ccsc2c(=O)[nH]1,-2.96%
21,CCOC(=O)[C@H]1[C@H]2COc3ccccc3[C@@H]2N2C(=O)CNC(=O)[C@@]12C,22.4%
22,COc1ccc(CCN(CC(=O)NC(C)(C)C)C(=O)Cn2nnc(-c3ccc(C)o3)n2)cc1OC,9.43%

row,Compound,"hERG current change (%, negative = inhibition) at 10uM"
1,CCCCn1c(N)c(N(CC(C)C)C(=O)c2oc3ccc(OCC)cc3c2C)c(=O)[nH]c1=O,-1.25%
2,COc1cc(/C=C/c2cccc[n+]2C)ccc1OCC(=O)Nc1ccccc1.[I-],8.86%
3,CCC(CC)C(=O)N1CC(=O)Nc2ccc(C)cc2C1c1ccccc1 (stereo not drawn),-38.1%
4,CCn1ncc(-c2csc(N)n2)c1C,0.511%
5,C=CCn1c(SCC(=O)N(CC)C2CCS(=O)(=O)C2)nc2cc(C(=O)O)ccc2c1=O (stereo not drawn),5.01%
6,Nc1nc(CN2CCCCCC2)nc(Nc2ccc(F)cc2)n1,-70.8%
7,COc1ccc(Nc2nc3c(C)cccn3c(=O)c2C=NCc2ccccc2)cc1,10.7%
8,CC1Oc2ccccc2N(CC(=O)NCCN2CCOCC2)C1=O (stereo not drawn),-0.941%
9,CCOC(=O)c1c(N)sn(-c2ccccc2C)c1=S,8.27%
10,O=C(O)Cn1nc(C(F)(F)F)c2c1CCC2,20.4%
11,Cn1c(=O)c2c(nc(N3CCC(C(N)=O)CC3)n2CCSc2nc3ccccc3s2)n(C)c1=O,-9.84%
12,CSc1nnc2n(-c3ccccc3)c(=O)c3c4c(sc3n12)CCC4,-22.9%
13,CC1CCN(Cc2ccc(-c3nn[nH]n3)cc2)CC1,21.1%
14,O=C(Nc1cccnc1)c1cccnc1,16%
15,CC(C)Oc1ccccc1/C=N/n1nnnc1N,8.96%
16,COC(=O)CCCCC1SCC2NC(=O)NC21O (stereo not drawn),9.34%
17,C[C@]12CCC3c4ccc(OCC(=O)O)cc4CCC3C1CCC2=O (stereo partly drawn),11.6%
18,CCCCNC(=S)N/N=C/c1cc(C)ccc1C,-3.11%
19,O=C(COC(=O)Cc1cn2ccsc2n1)Nc1nc2ccccc2s1,8.88%
20,CC(C)(C)NS(=O)(=O)c1ccc(NC(=O)C2CC(=O)N(CCc3ccc(F)cc3)C2)cc1 (stereo not drawn),-7.96%
21,O=C(O)c1cc2nccc(-c3ccco3)n2n1,-0.9%
